Reference: the antibiotic and cytotoxicity screens of Wong et al. (2023)
The other results are listed elsewhere or left out.

Each compound was assayed on HepG2 (assay: cytotoxicity call (relative viability < 0.9)). Settings: 10 µM.

Row | SMILES | cytotoxicity call
1 | CCOc1ccc(Nc2c3ccccc3nc3ccccc23)cc1 | active
2 | C[C@@H]1CCCCO[C@H](CN(C)C(=O)NC2CCCCC2)[C@H](C)CN([C@H](C)CO)C(=O)c2cc(NC(=O)Cc3ccccc3)ccc2O1 | inactive
3 | C[C@@H]1CN([C@H](C)CO)C(=O)Cc2cc(NC(=O)CCCN(C)C)ccc2O[C@@H]1CN(C)S(=O)(=O)c1ccccc1 | inactive
4 | O=C(C[C@@H]1C[C@H]2c3cc(NC(=O)NC4CCCC4)ccc3O[C@H]2[C@@H](CO)O1)NCc1ccc2c(c1)OCO2 | inactive
5 | C[C@@H]1CN([C@@H](C)CO)C(=O)c2cc(C3=CCCC3)cnc2O[C@H]1CN(C)S(=O)(=O)c1cn(C)cn1 | inactive
6 | C[C@H](CO)N1C[C@H](C)[C@H](CN(C)C(=O)Nc2ccccc2)Oc2ccc(NC(=O)Nc3cccc4ccccc34)cc2C1=O | inactive
7 | C[C@@H]1CCCCO[C@@H](CN(C)C(=O)c2ccccc2)[C@@H](C)CN([C@@H](C)CO)C(=O)c2cc(NC(=O)Cc3ccccc3)ccc2O1 | inactive
8 | Cc1noc(C)c1NC(=O)Nc1cccc2c1O[C@H](CN(C)Cc1ccc(Cl)c(Cl)c1)[C@@H](C)CN([C@H](C)CO)C2=O | inactive
9 | Cc1ccc(S(=O)(=O)N(C)C[C@H]2OCCCC[C@@H](C)Oc3ccc(NC(=O)Nc4ccc5c(c4)OCO5)cc3C(=O)N([C@@H](C)CO)C[C@@H]2C)cc1 | inactive
10 | O=C(O)C[C@](O)(CC(=O)[O][Bi]1[O]C(=O)C[C@@](O)(CC(=O)O)C(=O)[O]1)C(=O)O | inactive
11 | Cc1noc(C)c1NC(=O)N(C)C[C@H]1Oc2cc(C#CCN(C)C)ccc2S(=O)(=O)N([C@@H](C)CO)C[C@@H]1C | inactive
12 | C[C@@H]1CN([C@@H](C)CO)S(=O)(=O)c2ccc(Br)cc2O[C@H]1CN(C)C(=O)c1ccccc1 | inactive
13 | CC1(C)C(=O)NCCN1C(=O)Cc1ccccc1 | inactive
14 | COc1ccc(S(=O)(=O)N2C[C@@H](O)COC[C@H]3O[C@@H](CC(=O)NCCCN4CCOCC4)CC[C@@H]32)cc1 | inactive
15 | C[C@@H]1CN([C@@H](C)CO)C(=O)c2cc(N(C)C)ccc2O[C@H]1CN(C)S(C)(=O)=O | inactive
16 | CC(C)NC(=O)Nc1ccc2c(c1)CC(=O)N([C@H](C)CO)C[C@H](C)[C@H](CN(C)S(=O)(=O)c1cn(C)cn1)O2 | inactive
17 | O=C(C[C@@H]1CC[C@@H]2[C@H](COC[C@H](O)CN2S(=O)(=O)c2cccc(Cl)c2)O1)NC1Cc2ccccc2C1 | inactive
18 | Cc1ccc(S(=O)(=O)N(C)C[C@H]2OCCCC[C@@H](C)Oc3ccc(NC(=O)CCC(F)(F)F)cc3C(=O)N([C@H](C)CO)C[C@H]2C)cc1 | inactive
19 | C[C@@H]1CN([C@H](C)CO)C(=O)c2cc(C3=CCCCC3)cnc2O[C@@H]1CN(C)C(=O)CN1CCOCC1 | inactive
20 | COc1cccc(NC(=O)N[C@H]2C=C[C@H](CC(=O)N3CCOCC3)O[C@H]2CO)c1 | inactive
21 | Cc1ccc(S(=O)(=O)N(C)C[C@@H]2OCCCC[C@H](C)Oc3ccc(NC(=O)Nc4c(C)noc4C)cc3C(=O)N([C@@H](C)CO)C[C@@H]2C)cc1 | inactive
22 | CC(=O)N1CCN(C)CC1 | inactive
23 | COc1ccc(CNC(=O)C[C@H]2C[C@H]3c4cc(NS(=O)(=O)c5ccc(F)cc5)ccc4O[C@H]3[C@@H](CO)O2)cc1 | inactive
24 | C[C@H](CO)N1C[C@H](C)[C@@H](CN(C)Cc2cncnc2)Oc2cc(C#CC3CCCC3)ccc2S1(=O)=O | inactive
25 | CC(=O)O[C@@H]1[C@@H](OC(C)=O)[C@H](C)O[C@@H](O[C@H]2[C@H](OC/C=C(\C)CC/C=C(\C)CC/C=C(\C)CCC=C(C)C)O[C@H](CO[C@@H]3O[C@@H](C)[C@H](O)[C@@H](O)[C@H]3O)[C@@H](O)[C@@H]2O)[C@@H]1OC(C)=O | inactive
26 | C[C@H](CO)N1C[C@H](C)[C@H](CN(C)CC2CCCCC2)Oc2ccc(NC(=O)Cc3cn(C)c4ccccc34)cc2C1=O | inactive
27 | COc1ccc(NC(=O)Nc2ccc3c(c2)C(=O)N([C@@H](C)CO)C[C@@H](C)[C@@H](CN(C)Cc2ccc(C(=O)Nc4ccccc4N)cc2)O3)cc1 | inactive
28 | COc1ccc(NC(=O)N(C)C[C@H]2OCCCC[C@@H](C)Oc3ccc(NC(=O)C4CCCCC4)cc3C(=O)N([C@H](C)CO)C[C@H]2C)cc1 | inactive
29 | CO[C@H](CN(C)C(=O)Nc1ccc(C(F)(F)F)cc1)[C@H](C)CN(Cc1ccccc1Cl)[C@H](C)CO | inactive
